Data as given in the BET-seq Pho4 binding data (Le et al. 2018).
Some of the results follow. Values were computed here from the reads of four pooled replicates and scatter widely.

Target: T1, Pho4 (S. cerevisiae) (UniProt P07270)
T1 sequence: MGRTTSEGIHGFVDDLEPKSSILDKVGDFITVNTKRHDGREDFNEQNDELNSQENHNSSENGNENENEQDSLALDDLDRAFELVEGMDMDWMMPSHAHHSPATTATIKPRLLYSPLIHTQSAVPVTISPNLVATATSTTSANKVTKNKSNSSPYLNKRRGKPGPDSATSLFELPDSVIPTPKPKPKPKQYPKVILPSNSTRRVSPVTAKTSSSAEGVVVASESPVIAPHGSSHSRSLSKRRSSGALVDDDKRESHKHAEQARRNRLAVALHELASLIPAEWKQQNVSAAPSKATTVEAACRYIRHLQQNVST
Assay: relative binding free energy (BET-seq); higher = weaker binding
Conditions: reference: library average

Row | Sequence | relative binding free energy
1 | ATGCACACGTGTATTG | -0.01 kcal/mol
2 | GCAGGCACGTGGGACG | -0.19 kcal/mol
3 | GTAGGCACGTGTGTAG | -0.05 kcal/mol
4 | GTAGACACGTGCGTTG | -0.13 kcal/mol
5 | CCTGTCACGTGTTTGT | -0.1 kcal/mol
6 | TTTGGCACGTGGGCGT | -0.22 kcal/mol
7 | TTGTACACGTGGGGCG | -0.05 kcal/mol
8 | GTGACCACGTGGAATT | 0.29 kcal/mol
9 | GATTCCACGTGTTTGA | 0.32 kcal/mol
10 | ATAGACACGTGTCGTT | 0 kcal/mol
11 | TGCGACACGTGAAGTT | 0.2 kcal/mol
12 | TTCGTCACGTGAAGTG | 0.27 kcal/mol
13 | AGTGCCACGTGAATGG | 0.13 kcal/mol
14 | AGGGTCACGTGTTGGC | 0.08 kcal/mol
15 | CTTGGCACGTGTATGA | -0.16 kcal/mol
16 | GTTTTCACGTGGTGAT | 0.35 kcal/mol
17 | AGTTGCACGTGGTGTC | -0.03 kcal/mol
18 | GATTGCACGTGAATTA | 0.33 kcal/mol
19 | ATAGCCACGTGGGGTT | -0.26 kcal/mol
20 | CTTGACACGTGTTTTG | 0 kcal/mol
21 | ATGTGCACGTGGGAGT | -0.07 kcal/mol
22 | GTGGGCACGTGAGTCG | 0.16 kcal/mol
23 | GTAGGCACGTGTGATG | 0.04 kcal/mol
24 | TCGAGCACGTGGGCGT | -0.12 kcal/mol
25 | CTAGACACGTGGGAGG | -0.12 kcal/mol

Row | Sequence | relative binding free energy
26 | GGGCGCACGTGGTGGG | -0.16 kcal/mol
27 | TATGTCACGTGGGTCC | 0.01 kcal/mol
28 | GGTGGCACGTGCCGTG | 0.02 kcal/mol
29 | TGTCTCACGTGTAAGG | 0.18 kcal/mol
30 | CGATGCACGTGGAGTT | 0.13 kcal/mol
31 | TTTCGCACGTGGGTAA | -0.1 kcal/mol
32 | TTGCACACGTGATAGG | 0.19 kcal/mol
33 | AATGCCACGTGTTTAT | 0.03 kcal/mol
34 | GTGCACACGTGGTGTA | 0.03 kcal/mol
35 | AGACGCACGTGGTGTT | -0.18 kcal/mol
36 | TATCACACGTGGGAGT | -0.03 kcal/mol
37 | TGTCGCACGTGGGCGT | -0.2 kcal/mol
38 | GAAGTCACGTGGACGT | 0.15 kcal/mol
39 | GGGCGCACGTGGTTCG | 0.05 kcal/mol
40 | AATTGCACGTGGTTGC | 0 kcal/mol
41 | TGGGTCACGTGCTAGC | 0.11 kcal/mol
42 | TGATTCACGTGGGGAG | 0.02 kcal/mol
43 | AATTGCACGTGCGGAG | -0.11 kcal/mol
44 | GGGATCACGTGGTGGG | 0.15 kcal/mol
45 | ATGTGCACGTGGACTG | -0.03 kcal/mol
46 | CGGTTCACGTGGGGAT | 0.21 kcal/mol
47 | TATTTCACGTGATGCT | 0.31 kcal/mol
48 | GTTTTCACGTGGCAAT | 0.28 kcal/mol
49 | GTTGACACGTGAACGT | 0.22 kcal/mol
50 | GTCGTCACGTGGGACG | 0.08 kcal/mol

Row | Sequence | relative binding free energy
51 | GGTTGCACGTGGTTCA | 0.03 kcal/mol
52 | GGATGCACGTGGCTAT | 0.01 kcal/mol
53 | TTGTCCACGTGAATGT | 0.18 kcal/mol
54 | TTCTTCACGTGATATG | 0.08 kcal/mol
55 | AATAGCACGTGTTTGC | -0.01 kcal/mol
56 | CGTTTCACGTGTGTTT | 0.26 kcal/mol
57 | GGCAGCACGTGAGGGC | 0.13 kcal/mol
58 | CTTAACACGTGTGTGA | -0.06 kcal/mol
59 | AGGAGCACGTGGTGGA | -0.11 kcal/mol
60 | TATGTCACGTGAAATG | 0.22 kcal/mol
61 | TGTTTCACGTGGTGCT | 0.12 kcal/mol
62 | CATATCACGTGTGGTA | 0.08 kcal/mol
63 | TATGGCACGTGAGTGG | 0.1 kcal/mol
64 | GTTGTCACGTGGCATT | 0.06 kcal/mol
65 | TGGTGCACGTGGGGTC | -0.23 kcal/mol
66 | GCGAGCACGTGTGTTG | 0.01 kcal/mol
67 | TCTGGCACGTGTTATA | -0.17 kcal/mol
68 | GTGGGCACGTGGGGTA | -0.25 kcal/mol
69 | GTGGACACGTGAAGAG | 0.19 kcal/mol
70 | GTAAGCACGTGGTTTA | -0.22 kcal/mol
71 | AGCAGCACGTGTGGGT | 0 kcal/mol
72 | CTATGCACGTGAGGGC | 0.16 kcal/mol
73 | TAAATCACGTGTGTGT | 0.13 kcal/mol
74 | TATGTCACGTGTTAAT | 0.13 kcal/mol
75 | CTTGGCACGTGCAAGG | -0.07 kcal/mol

Row | Sequence | relative binding free energy
76 | GCAGGCACGTGGTGGT | -0.18 kcal/mol
77 | TGCTGCACGTGAATGG | 0.11 kcal/mol
78 | GACTTCACGTGGTATT | 0.25 kcal/mol
79 | GGTTACACGTGTTCGG | 0.15 kcal/mol
80 | TGGGGCACGTGTTGAG | -0.05 kcal/mol
81 | TCAGTCACGTGAAGGG | 0.3 kcal/mol
82 | ACTGGCACGTGTTCGT | -0.15 kcal/mol
83 | TGGGTCACGTGATGTA | 0.22 kcal/mol
84 | CAGGGCACGTGTCGTG | -0.16 kcal/mol
85 | TGTCCCACGTGTTATT | -0.03 kcal/mol
86 | ATGGTCACGTGGAGGA | 0.1 kcal/mol
87 | TTTTTCACGTGACGTT | 0.45 kcal/mol
88 | CATTGCACGTGGGGGA | -0.13 kcal/mol
89 | TATTACACGTGGTTAT | 0.03 kcal/mol
90 | GGGCGCACGTGGGAAG | -0.09 kcal/mol
91 | ATGGACACGTGCAAGG | 0 kcal/mol
92 | TTTTTCACGTGTCTTC | 0.43 kcal/mol
93 | TTACACACGTGTGGGT | 0.07 kcal/mol
94 | GTGTGCACGTGTTACT | -0.03 kcal/mol
95 | TTGGTCACGTGTATCG | 0.13 kcal/mol
96 | CGATACACGTGGGTAG | -0.1 kcal/mol
97 | GGTGGCACGTGTTGCT | -0.08 kcal/mol
98 | CGTTGCACGTGTGATT | 0 kcal/mol
99 | CTTGACACGTGCGGGG | 0.03 kcal/mol
100 | TTTACCACGTGGTGGC | 0.05 kcal/mol

Row | Sequence | relative binding free energy
101 | TTTCTCACGTGCGGGT | 0.22 kcal/mol
102 | AGCTTCACGTGGTGTT | 0.16 kcal/mol
103 | CCTGGCACGTGGATGG | -0.11 kcal/mol
104 | CTTGTCACGTGGGTAA | 0.04 kcal/mol
105 | TAGGGCACGTGTTGGA | -0.03 kcal/mol
106 | TAGCTCACGTGGTAGA | 0.17 kcal/mol
107 | TGCTTCACGTGGTAGT | 0.27 kcal/mol
108 | AGATTCACGTGGATGG | 0.3 kcal/mol
109 | CGTTGCACGTGGAGTT | 0.01 kcal/mol
110 | TGATACACGTGAAGGA | 0.28 kcal/mol
111 | GGCGGCACGTGGTGAA | -0.02 kcal/mol
112 | TGGAGCACGTGCAAGT | 0.03 kcal/mol
113 | GGATACACGTGGGGTC | -0.05 kcal/mol
114 | AAGGTCACGTGAGCAG | 0.38 kcal/mol
115 | TTTCTCACGTGACGGG | 0.29 kcal/mol
116 | ATCTGCACGTGTGTGC | 0.01 kcal/mol
117 | GTATTCACGTGAAGGA | 0.24 kcal/mol
118 | AGATACACGTGGAGGA | 0.06 kcal/mol
119 | AGGTTCACGTGGGGGA | 0.13 kcal/mol
120 | GTGATCACGTGGAGTG | 0.07 kcal/mol
121 | TAGGTCACGTGCGGTG | 0.11 kcal/mol
122 | TGTGTCACGTGTTTCA | 0.02 kcal/mol
123 | GGTTGCACGTGAAAGG | 0.42 kcal/mol
124 | TTGTACACGTGATTGG | 0.1 kcal/mol
125 | CGTGCCACGTGTGTGG | -0.06 kcal/mol

Row | Sequence | relative binding free energy
126 | GTTAACACGTGGGCTT | -0.15 kcal/mol
127 | CGGGTCACGTGCGTGT | -0.03 kcal/mol
128 | GAGCGCACGTGGTTTG | -0.06 kcal/mol
129 | TGTTACACGTGGTTCT | 0.05 kcal/mol
130 | AGGTACACGTGCTGGT | 0.07 kcal/mol
131 | AGTAGCACGTGACTGT | 0.07 kcal/mol
132 | TTCGTCACGTGCGTCT | 0.13 kcal/mol
133 | TTGAGCACGTGAACGG | 0.13 kcal/mol
134 | CGTTTCACGTGGTGTT | 0.1 kcal/mol
135 | CGTTTCACGTGTTGCT | 0.22 kcal/mol
136 | AGGTGCACGTGTGCGC | -0.05 kcal/mol
137 | TTAGACACGTGTTGGG | 0.07 kcal/mol
138 | GTGGTCACGTGAGAAG | 0.37 kcal/mol
139 | ATTATCACGTGACGTA | 0.28 kcal/mol
140 | TTGTTCACGTGGATGA | 0.3 kcal/mol
141 | TATGCCACGTGATTTT | 0.19 kcal/mol
142 | TTTGGCACGTGGCATA | -0.11 kcal/mol
143 | TACGTCACGTGGTTGG | -0.02 kcal/mol
144 | ATTAGCACGTGGTTAA | -0.16 kcal/mol
145 | AGGTTCACGTGCTGGT | 0.25 kcal/mol
146 | TGTCTCACGTGGACGG | 0.12 kcal/mol
